This is an account of results in patent US20230398178A1, “METHODS AND COMPOSITIONS FOR TREATING OR PREVENTING A VAGINAL INFECTION OF GARDNERELLA VAGINALIS” (Massachusetts Institute of Technology, priority 2022, published 2023).

The assay concerns End1 endocervical cells challenged with G. vaginalis 49145 or 14018. The conditions noted are these: End1 cells challenged with G. vaginalis 49145 or 14018, viability after 24 hours.

For “MUC5B: mucin glycoprotein, predominant in cervicovaginal fluid, purified from pooled human saliva and reconstituted into gels”, the “effect on endocervical cell death / killing, in words” value is on record as “higher survival rates for the endocervical cells”.
